# From the supplement of paper PMC8728848
# This is one part of the list.
# B1: PA-IL (Pseudomonas aeruginosa) (protein)
# chain: AWKGEVLANNEAGQVTSIIYNPGDVITIVAAGWASYGPTQKWGPQGDREHPDQGLICHDAFCGALVMKIGNSGTIPVNTGLFRWVAPNNVQGAITLIYNDVPGTYGNNSGSFSVNIGKDQS
# Experiments:
# Assay in all cases: glycan array binding signal (z-score within array); higher = stronger binding
# Details in all cases: glycan notation: IUPAC condensed, linker removed
# Gal4S6S(b1-4)GlcNAc = molecular target: Gal4S6S(b1-4)GlcNAc
# In short: (§1)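 Glycan array binding is given as a within-array Z-score, which can be read as non-binding when negative. The arrays, 3228 of them, came from the Consortium for Functional Glycomics database and were retained only where the protein sequence was available. Z-scores were averaged across arrays of the same protein sequence at different concentrations or buffers and across linkers.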
# Gal6S(b1-4)Glc = molecular target: Gal6S(b1-4)Glc
# In short: as §1
# Gal6S(b1-4)Glc6S = molecular target: Gal6S(b1-4)Glc6S
# In short: as §1
# Gal6S(b1-4)GlcNAc = molecular target: Gal6S(b1-4)GlcNAc
# In short: as §1
# GalNAc(a1-3)Gal = molecular target: GalNAc(a1-3)Gal
# In short: as §1
# GalNAc(a1-3)GalNAc = molecular target: GalNAc(a1-3)GalNAc
# In short: as §1
# [1] = molecular target: GalNAc(b1-3)Gal(a1-4)Gal(b1-4)GlcNAc
# In short: as §1
# GalNAc(b1-3)GalNAc = molecular target: GalNAc(b1-3)GalNAc
# In short: as §1
# GalNAc(b1-4)GlcNAc = molecular target: GalNAc(b1-4)GlcNAc
# In short: as §1
# Glc(a1-4)Glc = molecular target: Glc(a1-4)Glc
# In short: as §1
# Glc(a1-6)Glc(a1-6)Glc = molecular target: Glc(a1-6)Glc(a1-6)Glc
# In short: as §1
# Glc(b1-4)Glc = molecular target: Glc(b1-4)Glc
# In short: as §1
# Glc(b1-6)Glc = molecular target: Glc(b1-6)Glc
# In short: as §1
# GlcA(b1-3)Gal = molecular target: GlcA(b1-3)Gal
# In short: as §1
# GlcA(b1-6)Gal = molecular target: GlcA(b1-6)Gal
# In short: as §1
# [2] = molecular target: GlcNAc(a1-3)Gal(b1-4)GlcNAc
# In short: as §1
# [3] = molecular target: GlcNAc(a1-6)Gal(b1-4)GlcNAc
# In short: as §1
# [4] = molecular target: GlcNAc(b1-2)Gal(b1-3)GalNAc
# In short: as §1
# [5] = molecular target: GlcNAc(b1-2)Man(a1-3)[GlcNAc(b1-2)Man(a1-6)]Man(b1-4)GlcNAc(b1-4)GlcNAc
# In short: as §1
# GlcNAc(b1-3)Gal = molecular target: GlcNAc(b1-3)Gal
# In short: as §1
# [6] = molecular target: GlcNAc(b1-3)Gal(b1-3)GalNAc
# In short: as §1
# GlcNAc(b1-3)Gal(b1-4)Glc = molecular target: GlcNAc(b1-3)Gal(b1-4)Glc
# In short: as §1
# [7] = molecular target: GlcNAc(b1-3)Gal(b1-4)GlcNAc
# In short: as §1
# [8] = molecular target: GlcNAc(b1-3)Gal(b1-4)GlcNAc(b1-3)Gal(b1-4)GlcNAc
# In short: as §1
# GlcNAc(b1-3)GalNAc = molecular target: GlcNAc(b1-3)GalNAc
# In short: as §1
# [9] = molecular target: GlcNAc(b1-3)[GlcNAc(b1-6)]Gal(b1-4)GlcNAc
# In short: as §1
# [10] = molecular target: GlcNAc(b1-3)[GlcNAc(b1-6)]GalNAc
# In short: as §1
# [11] = molecular target: GlcNAc(b1-3)[GlcNAc(b1-6)]GlcNAc(b1-4)GlcNAc
# In short: as §1
# [12] = molecular target: GlcNAc(b1-4)Gal(b1-4)GlcNAc
# In short: as §1
# [13] = molecular target: GlcNAc(b1-4)GlcNAc(b1-4)GlcNAc
# In short: as §1
# [14] = molecular target: GlcNAc(b1-4)GlcNAc(b1-4)GlcNAc(b1-4)GlcNAc(b1-4)GlcNAc
# In short: as §1
# [15] = molecular target: GlcNAc(b1-4)GlcNAc(b1-4)GlcNAc(b1-4)GlcNAc(b1-4)GlcNAc(b1-4)GlcNAc
# In short: as §1
# [16] = molecular target: GlcNAc(b1-4)[GlcNAc(b1-6)]GalNAc
# In short: as §1
# [17] = molecular target: GlcNAc(b1-6)Gal(b1-4)GlcNAc
# In short: as §1
# GlcNAc(b1-6)GalNAc = molecular target: GlcNAc(b1-6)GalNAc
# In short: as §1
# Kdn(a2-3)Gal(b1-3)GlcNAc = molecular target: Kdn(a2-3)Gal(b1-3)GlcNAc
# In short: as §1
# Kdn(a2-3)Gal(b1-4)GlcNAc = molecular target: Kdn(a2-3)Gal(b1-4)GlcNAc
# In short: as §1
# [18] = molecular target: Man(a1-2)Man(a1-2)Man(a1-3)Man
# In short: as §1
# [19] = molecular target: Man(a1-2)Man(a1-2)Man(a1-6)[Man(a1-3)]Man
# In short: as §1
# Man(a1-2)Man(a1-3)Man = molecular target: Man(a1-2)Man(a1-3)Man
# In short: as §1
# [20] = molecular target: Man(a1-2)Man(a1-3)[Man(a1-2)Man(a1-6)]Man
# In short: as §1
# [21] = molecular target: Man(a1-2)Man(a1-3)[Man(a1-2)Man(a1-6)]Man(a1-6)[Man(a1-2)Man(a1-2)Man(a1-3)]Man(b1-4)GlcNAc(b1-4)GlcNAc
# In short: as §1
# [22] = molecular target: Man(a1-2)Man(a1-3)[Man(a1-6)]Man(a1-6)[Man(a1-2)Man(a1-3)]Man(b1-4)GlcNAc(b1-4)GlcNAc
# In short: as §1
# [23] = molecular target: Man(a1-2)Man(a1-6)[Man(a1-3)]Man(a1-6)[Man(a1-2)Man(a1-2)Man(a1-3)]Man(b1-4)GlcNAc(b1-4)GlcNAc
# In short: as §1
# Man(a1-3)[Man(a1-6)]Man = molecular target: Man(a1-3)[Man(a1-6)]Man
# In short: as §1
# [24] = molecular target: Man(a1-3)[Man(a1-6)]Man(a1-6)[Man(a1-2)Man(a1-3)]Man(b1-4)GlcNAc(b1-4)GlcNAc
# In short: as §1
# [25] = molecular target: Man(a1-3)[Man(a1-6)]Man(a1-6)[Man(a1-3)]Man(b1-4)GlcNAc(b1-4)GlcNAc
# In short: as §1
# [26] = molecular target: Man(a1-3)[Man(a1-6)]Man(b1-4)GlcNAc(b1-4)GlcNAc
# In short: as §1
# Man(b1-4)GlcNAc = molecular target: Man(b1-4)GlcNAc
# In short: as §1
# Neu5Ac(a2-3)Gal = molecular target: Neu5Ac(a2-3)Gal
# In short: as §1
# [27] = molecular target: Neu5Ac(a2-3)Gal(b1-3)GalNAc
# In short: as §1
# [28] = molecular target: Neu5Ac(a2-3)Gal(b1-3)GalNAc(b1-3)Gal(a1-4)Gal(b1-4)Glc
# In short: as §1
binder,measurement,setting,value
B1,glycan array binding signal (z-score),Gal4S6S(b1-4)GlcNAc,-0.365
same,glycan array binding signal (z-score),Gal6S(b1-4)Glc,-0.365
same,glycan array binding signal (z-score),Gal6S(b1-4)Glc6S,-0.364
same,glycan array binding signal (z-score),Gal6S(b1-4)GlcNAc,-0.361
same,glycan array binding signal (z-score),GalNAc(a1-3)Gal,1.6
same,glycan array binding signal (z-score),GalNAc(a1-3)GalNAc,1.89
same,glycan array binding signal (z-score),[1],-0.306
same,glycan array binding signal (z-score),GalNAc(b1-3)GalNAc,-0.365
same,glycan array binding signal (z-score),GalNAc(b1-4)GlcNAc,-0.365
same,glycan array binding signal (z-score),Glc(a1-4)Glc,-0.365
same,glycan array binding signal (z-score),Glc(a1-6)Glc(a1-6)Glc,-0.365
same,glycan array binding signal (z-score),Glc(b1-4)Glc,-0.365
same,glycan array binding signal (z-score),Glc(b1-6)Glc,-0.365
same,glycan array binding signal (z-score),GlcA(b1-3)Gal,-0.365
same,glycan array binding signal (z-score),GlcA(b1-6)Gal,-0.365
same,glycan array binding signal (z-score),[2],-0.365
same,glycan array binding signal (z-score),[3],-0.363
same,glycan array binding signal (z-score),[4],-0.365
same,glycan array binding signal (z-score),[5],-0.364
same,glycan array binding signal (z-score),GlcNAc(b1-3)Gal,-0.365
same,glycan array binding signal (z-score),[6],-0.309
same,glycan array binding signal (z-score),GlcNAc(b1-3)Gal(b1-4)Glc,-0.365
same,glycan array binding signal (z-score),[7],-0.365
same,glycan array binding signal (z-score),[8],-0.365
same,glycan array binding signal (z-score),GlcNAc(b1-3)GalNAc,-0.365
same,glycan array binding signal (z-score),[9],-0.364
same,glycan array binding signal (z-score),[10],-0.363
same,glycan array binding signal (z-score),[11],-0.365
same,glycan array binding signal (z-score),[12],-0.365
same,glycan array binding signal (z-score),[13],-0.365
same,glycan array binding signal (z-score),[14],-0.365
same,glycan array binding signal (z-score),[15],-0.365
same,glycan array binding signal (z-score),[16],-0.365
same,glycan array binding signal (z-score),[17],-0.354
same,glycan array binding signal (z-score),GlcNAc(b1-6)GalNAc,-0.365
same,glycan array binding signal (z-score),Kdn(a2-3)Gal(b1-3)GlcNAc,-0.365
same,glycan array binding signal (z-score),Kdn(a2-3)Gal(b1-4)GlcNAc,-0.365
same,glycan array binding signal (z-score),[18],-0.248
same,glycan array binding signal (z-score),[19],-0.365
same,glycan array binding signal (z-score),Man(a1-2)Man(a1-3)Man,-0.365
same,glycan array binding signal (z-score),[20],-0.365
same,glycan array binding signal (z-score),[21],-0.357
same,glycan array binding signal (z-score),[22],-0.365
same,glycan array binding signal (z-score),[23],-0.364
same,glycan array binding signal (z-score),Man(a1-3)[Man(a1-6)]Man,-0.365
same,glycan array binding signal (z-score),[24],-0.365
same,glycan array binding signal (z-score),[25],-0.365
same,glycan array binding signal (z-score),[26],-0.365
same,glycan array binding signal (z-score),Man(b1-4)GlcNAc,-0.365
same,glycan array binding signal (z-score),Neu5Ac(a2-3)Gal,-0.365
same,glycan array binding signal (z-score),[27],-0.365
same,glycan array binding signal (z-score),[28],-0.365
